According to publication PMC4336329 (PLoS ONE, 2015):
Among all 310,000 compounds or so, about 14,000 (4.5%) showed an effect of 50% or more. The effect is printed as a negative number. The list shows a part of the results.

The compounds below were run against human ether-à-go-go-related gene (hERG) potassium channel (human, UniProt Q12809) (assay: primary screen, population patch clamp on CHO cells stably expressing hERG).
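Further: peak tail current of the secondary pulse compared with the same well before compound.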

Sequence of human ether-à-go-go-related gene (hERG) potassium channel (Q12809 whole entry, looked up): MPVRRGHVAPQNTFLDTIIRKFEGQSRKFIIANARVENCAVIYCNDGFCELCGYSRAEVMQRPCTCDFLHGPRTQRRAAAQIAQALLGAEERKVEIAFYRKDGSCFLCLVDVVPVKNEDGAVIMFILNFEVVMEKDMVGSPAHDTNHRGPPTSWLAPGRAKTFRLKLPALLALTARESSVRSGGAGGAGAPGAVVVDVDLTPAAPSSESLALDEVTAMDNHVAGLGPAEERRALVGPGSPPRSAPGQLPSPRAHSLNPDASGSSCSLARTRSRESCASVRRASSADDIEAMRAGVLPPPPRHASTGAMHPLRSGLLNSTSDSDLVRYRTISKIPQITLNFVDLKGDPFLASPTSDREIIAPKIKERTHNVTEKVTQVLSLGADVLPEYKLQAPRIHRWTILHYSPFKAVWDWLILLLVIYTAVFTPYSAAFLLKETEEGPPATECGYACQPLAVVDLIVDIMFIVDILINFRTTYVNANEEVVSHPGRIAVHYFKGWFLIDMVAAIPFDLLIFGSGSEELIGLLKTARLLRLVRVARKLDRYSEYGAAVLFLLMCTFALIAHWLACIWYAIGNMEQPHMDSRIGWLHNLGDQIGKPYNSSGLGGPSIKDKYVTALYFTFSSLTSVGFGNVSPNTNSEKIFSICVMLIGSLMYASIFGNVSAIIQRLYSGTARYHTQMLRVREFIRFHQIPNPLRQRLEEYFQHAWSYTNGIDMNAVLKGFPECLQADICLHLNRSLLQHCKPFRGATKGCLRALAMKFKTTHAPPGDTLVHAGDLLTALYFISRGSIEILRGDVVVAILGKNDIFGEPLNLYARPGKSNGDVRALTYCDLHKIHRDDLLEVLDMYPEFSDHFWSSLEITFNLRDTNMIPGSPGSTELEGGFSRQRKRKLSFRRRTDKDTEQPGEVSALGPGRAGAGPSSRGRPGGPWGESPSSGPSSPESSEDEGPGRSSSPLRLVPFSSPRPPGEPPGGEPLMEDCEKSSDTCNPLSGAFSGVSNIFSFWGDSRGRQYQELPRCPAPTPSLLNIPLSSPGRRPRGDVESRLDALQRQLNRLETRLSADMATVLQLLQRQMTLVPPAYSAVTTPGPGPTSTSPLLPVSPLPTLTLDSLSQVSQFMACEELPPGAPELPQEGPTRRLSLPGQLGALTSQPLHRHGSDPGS

| SMILES | hERG current change (%, negative = inhibition) at 10uM |
| --- | --- |
| Cc1cc(C)nc(N(C#N)CN2C(=O)c3ccccc3S2(=O)=O)n1 | 0.542% |
| O=Cc1cn(Cc2c(F)cccc2Cl)nc1-c1ccccc1 | 0.413% |
| Cc1ccc(CONS(=O)(=O)c2cc(C)ccc2C)cc1 | 15.5% |
| O=C(CN1C2CCC1CC(O)(c1cccnc1)C2)Nc1ccc2c(c1)OCO2 (stereo not shown) | -53.1% |
| CN(C)Cc1ccccc1C1(O)c2ccccc2CSc2ccccc21.Cl (stereo not shown) | 9.09% |
| COc1ccc(Cl)cc1NC(=O)CCN1C(=O)C2C3CCC(C3)C2C1=O (stereo not shown) | -6.36% |
| CC1CCCC(NC(=O)COC(=O)c2cc(S(=O)(=O)N3CCCCC3)ccc2N2CCOCC2)C1C (stereo not shown) | -31.8% |
| Cc1ccc(C2CCN(C(=S)Nc3cccc(C)c3)C2)cc1 (stereo not shown) | 1.21% |
| COC(c1ccccc1)c1nnc(CCC(=O)NCCc2ccc(Cl)cc2)o1 (stereo not shown) | -8.74% |
| O=C1CN(O)C(c2ccccc2Cl)=c2cc(Br)ccc2=N1 | 19.7% |
| O=C(CCCN1C(=O)C2CCCCN2C1=O)N1CCN(c2ccc([N+](=O)[O-])cc2)CC1 (stereo not shown) | -74.7% |
| CCN(CC)S(=O)(=O)c1ccc2[nH]cc(C(=O)NCCc3ccccc3)c(=O)c2c1 | 11.4% |
| O=C(Cc1nnc(NC(=O)c2ccccc2)s1)N/N=C/c1ccco1 | 6.79% |
| CCN(c1ccccc1)S(=O)(=O)c1cccc(C(=O)NCc2ccccn2)c1 | -11.1% |
| Cc1ccc(C(=O)NC(NCC2CCCO2)C(Cl)(Cl)Cl)cc1 (stereo not shown) | -10.5% |
| O=C(c1ccc(CNS(=O)(=O)c2cccc(Cl)c2)cc1)N1CCCCC1 | 13.6% |
| CC(=O)Nc1ccccc1Oc1ccccc1 | 5.79% |
| CNc1nc(SC)n(C)c(=O)c1N=O | 10.1% |
| Cc1cc(C)n2nc(C(=O)N/N=C/c3ccccc3C)nc2n1 | 4.85% |
| CCOC(=O)C1(Cc2ccc(Cl)cc2)CCN(Cc2nccn2CC)CC1 | -67.6% |
| CCN(CC)c1ccc(SS(=O)(=O)O)cc1 | 9.02% |
| Cc1ccc(Cl)cc1NC(=O)CN1CCOCC1 | -0.857% |
| CCCn1c2ccccc2c2cnn(CC(=O)OC)c(=O)c21 | -0.361% |

| SMILES | hERG current change (%, negative = inhibition) at 10uM |
| --- | --- |
| COC(=O)c1cc(Cl)c(NC(=O)/C=C/c2ccc(OC)c(OC)c2)cc1OC | -22.4% |
| Cc1ccnc(NS(=O)(=O)c2ccc(N)cc2)n1 | 9.29% |
| CCOC(=O)c1ccc(S(=O)(=O)N2CCN(C)CC2)cc1 | 12.3% |
| O=C(Nc1ccc2nc[nH]c2c1)c1ccco1 | -1.89% |
| COc1ccc(N=Cc2c(O)ccc3ccccc23)cc1 | 6.06% |
| O=C(CSc1c[nH]c2ccccc12)NC1CCCC1 | 11.2% |
| Nc1nonc1OCCN1CCN(c2ccc([N+](=O)[O-])c3cccnc23)CC1 | -71.7% |
| COc1ccc(S(=O)(=O)N(C)CC(=O)N2CCC(C)CC2)cc1Cl | -0.646% |
| CNC(=O)Nc1ccc2nc(C)oc2c1 | 19.8% |
| O=c1c2ccccc2nc(-c2ccoc2)n1-c1ccccc1Cl | 3.06% |
| COc1ccccc1N1CCN(c2ccc(-c3ccccc3)nn2)CC1 | -5.47% |
| N#CC1CC(c2ccc([N+](=O)[O-])cc2)=NN1c1ccc([N+](=O)[O-])cc1 (stereo not shown) | -6.29% |
| O=C(Nc1csc(Cl)c1)c1ccccc1 | -4.17% |
| COc1cc(C(=O)Sc2ccc(Cl)cc2)cc(OC)c1OC | 11.2% |
| COc1ccc(-c2ccnc(-c3ccc(O)cc3)n2)cc1 | 5.37% |
| CCCC(=O)N(Cc1cc2cc(C)ccc2[nH]c1=O)c1ccccc1OC | 6.09% |
| Fc1ccc(CNC2CCN(Cc3ccccc3)CC2)cc1 | -65.3% |
| Cc1cccc(-n2nc3c([n+]2[O-])CCc2nonc2-3)c1C | 11.4% |
| COC(=O)Oc1ccc(/C=C/C(=O)OC(C)C)cc1OC(=O)OC | 1.69% |
| CN(CC(CC(=O)Nc1nncs1)c1ccccc1)S(=O)(=O)c1ccc(Br)cc1 (stereo not shown) | -55.4% |
| CNC(=S)SCCOc1ccc(C)cc1 | 25% |
| CC(OC(=O)COc1ccccc1Cc1ccccc1)C(=O)N(C)c1ccccc1 (stereo not shown) | -0.572% |
| O=C(Nc1ccc(Cl)cn1)c1ccc(COCC(F)(F)C(F)F)o1 | -31.8% |

| SMILES | hERG current change (%, negative = inhibition) at 10uM |
| --- | --- |
| Cc1nnsc1SCCNC(=O)c1ccc(F)cc1 | 9.04% |
| CCN(CC)c1ccc(C2C3CCCCC3(O)CCN2C(=O)c2cccs2)cc1 (stereo not shown) | -7.15% |
| COc1cc(S(=O)(=O)N2CCCC2)c(C)cc1C | 8.51% |
| O=S(=O)(c1ccc(Br)s1)N1CCN(Cc2ccc3c(c2)OCO3)CC1 | 4.87% |
| COC(=O)c1sc2nc(C)c([N+](=O)[O-])c(C)c2c1N | -17.6% |
| Cc1ccc(C(=O)CC(=O)c2cccc(F)c2)c(O)c1 | 7.49% |
| CC(=O)Nc1ccnn1C1CCN(C(=O)c2cccc(C)c2C)CC1 | 2.93% |
| COC(=O)COc1coc(CN2CCN(c3cccc(Cl)c3)CC2)cc1=O | -11.4% |
| CN(C(=O)c1ccc(Br)cc1)C1CCS(=O)(=O)C1 (stereo not shown) | 1.51% |
| COc1ccccc1NC(=O)c1cc2c(CO)cnc(C)c2oc1=Nc1ccc(OC)c(OC)c1 | 13.3% |
| CCN1CCN(c2ccccc2NC(=O)C(C)Oc2ccc(C(C)=O)cc2)CC1 (stereo not shown) | -51.6% |
| CCOc1ccc(-c2nnc3n2N=C(c2ccc(OC)cc2)CS3)cc1 | 0.919% |
| Br.COCC(C)NCc1cccc(C)c1 (stereo not shown) | 12.4% |
| CCCCN(C)CCCNC(=O)C1(O)c2ccccc2NC(=O)N1c1ccc(Cl)cc1 (stereo not shown) | 22.2% |
| COc1cc(NC(=O)c2cccc(Cl)c2)ccc1NC(=O)c1cccs1 | 4.34% |
| COc1ccc(OC)c(NC(=O)C(=O)NNC(=O)C23CC4CC(CC(C4)C2)C3)c1 | 15.8% |
| c1ccc(-c2cn(C[C@H]3CC[C@@H]([C@@H]4CC[C@H](Cn5cc(-c6ccccc6)nn5)O4)O3)nn2)cc1 | -23.8% |
| CC(=O)Oc1ccc(C(=O)Cc2ccccn2)c(O)c1 | -9.71% |
| Cc1ccc(NC(=O)CSc2nnc(NC(=O)c3ccco3)s2)cc1 | -4.44% |
| CCOC(=O)c1ccc(N2C(=O)C3C(C2=O)C(C(=O)c2ccc(Cl)cc2)N2CCCC32)cc1 (stereo not shown) | 7.95% |
| COC(=O)c1c(F)c(F)c(NCCO)c(F)c1F | -12.3% |
| CCOC(=O)N1CCC(NC(=O)C2=CCN(S(=O)(=O)c3ccc(OC)cc3)CC2)CC1 | -36.7% |
| CC(C)NC1CS(=O)(=O)CC1O (stereo not shown) | -6.76% |

| SMILES | hERG current change (%, negative = inhibition) at 10uM |
| --- | --- |
| Cc1ccc(NC(=O)c2cc(-c3ccc4c(c3)OCO4)on2)cc1 | -29.4% |
| COc1ccc(NS(=O)(=O)c2cc(NC(=O)c3cccnc3Cl)ccc2N2CCCC2)cc1 | -13.2% |
| CCN(CC)S(=O)(=O)c1ccc(C(=O)N2CCN=C2SC)cc1 | 15% |
| CCOc1ccc(-c2c(C(=O)N/N=C/C3CCCCC3)nnn2-c2nonc2N)cc1 | 14.4% |
| Cc1ccc(S(=O)(=O)N2CCN(C)CC2)cc1C | 11.2% |
| COc1ccc2c(c1)-c1c(sn(-c3ccc(OC)c(OC)c3)c1=S)C(C)(C)N2 | 19.3% |
| O=C(NCC1CCCN(C(=O)c2cccc(C(F)(F)F)c2)C1)c1ccc(F)cc1 (stereo not shown) | -8.13% |
| Cc1ccc(N(CC(=O)N2CCCCCC2)S(=O)(=O)c2ccccc2)cc1 | -25.3% |
| O=C(CN1C(=O)C2(OCCO2)c2ccccc21)c1ccc(F)cc1 | 2.09% |
| CN(C)S(=O)(=O)c1ccc(N2CCCC2)c(C(=O)OCC(=O)NC2CCCCC2)c1 | -13.9% |
| COc1ccc(NC(=O)c2cnc3sccn3c2=O)cc1 | -0.0573% |
| O=C(NC(=S)N1CCc2ccccc21)c1ccccc1Br | 15.5% |
| O=C(OC1CCCCC1)c1cc2ccccc2oc1=O | -32.6% |
| CCOC(=O)C1CCN(CC(=O)c2c(C)n(C)c3ccc(OC)cc23)CC1 | -43.9% |
| COc1ccc(CNC(=O)C(C)n2nc(C)n3c(cc4occc43)c2=O)cc1 (stereo not shown) | 1.62% |
| O=C(Cc1csc(NC(=O)c2ccc(F)cc2)n1)NO | -3.56% |
| CCN(CC)c1ccc(S(=O)(=O)N2CCCCC2)cc1NC(=O)C1=COCCO1 | -20% |
| N/C(Cn1cncn1)=N\NC(=O)C(=O)Nc1ccccc1 | 32.3% |
| O=C(O)c1ccc2c(c1)CCC2 | 9.54% |
| COc1ccc(C2c3ccc4ccccc4c3Oc3ncn(Cc4ccco4)c(=N)c32)cc1OC (stereo not shown) | -62.9% |
| CCN(CC(=O)NC(C)C)Cc1nc2sc3c(c2c(=O)[nH]1)CCC3 | 10.3% |
| CN(NC(=O)CN1C(=O)c2ccccc2C1=O)C1=NS(=O)(=O)c2ccccc21 | 21.7% |
